# Data from the supplement of paper PMC11417369.
# ± gives the standard deviation of the averaged measurements. Some of the results follow.
# System: PfAP2-I AP2 domain 3 (GST-tagged)
# Assay: gcPBM binding intensity (ln(normalized median fluorescence intensity)); higher = stronger DNA binding
# How it was run: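 An Agilent 4 × 180k array carrying primer-extended double-stranded 36-bp intergenic genomic probes and negative controls received GST-tagged P. falciparum DNA-binding domains expressed in E. coli, about 25 μg on average, for 1 h. The binding buffer contained 1× PBS, 1% milk, 0.2 mg/ml BSA, 0.5% salmon testes DNA and 0.03% Triton X-100. Binding intensity is the top Masliner-normalised natural-log median intensity across replicate spots of either probe orientation, read after Alexa488 anti-GST antibody staining and a 488 nm scan.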
row,Sequence,gcPBM binding intensity (ln)
1,AGCACATAAATAATTAAACACACATTGTTCTAGACA [CACACA_site8746],7.64 ± 0.59
2,TTATAATTTTTCTATTGTACATTTAATAATATATAT [XGTACX_site7326],7.8 ± 0.48
3,TTATACATATTTATATGTACGTAATATAATATTAAT [XGTACX_site6520],7.79 ± 0.3
4,TATTTAATTTATACACGTACATATATAAATAATACA [XGTACX_site1148],7.99 ± 0.18
5,ATGAAGAAATAAATGTGTACATATCTTAGTATCATA [XGTACX_site8658],7.75 ± 0.5
6,TCATGGGTGTATTTCACACACGGATAATCATTTATA [CACACA_site4663],7.55 ± 0.45
7,TATAATGATGATGATAGTACGTATTAGTATAAAAAA [XGTACX_site9],8.06 ± 0.61
8,ATATTTTTTTTTGTTACACACGTTTTTTAAAAAATG [CACACA_site1603],8.39 ± 0.69
9,TCATAAAAATAAAAATGTACACATTAGAAATATTGT [XGTACX_site3671],7.83 ± 0.35
10,AGAAATAAAAAAAAAAATATATATATTATATATATA [CACACA_negctrl_site1799],8.76 ± 0.12
11,AAAATATATTAAGGCACACACATACATATTTATATA [CACACA_site7707],10.1 ± 0.54
12,AGATCAATAATGACAAGTACACAAAATAACATTTAA [XGTACX_site6968],7.69 ± 0.3
13,ACAAAAAAAAAAAAAAAAAAAAAAAAAAAATAATAA [CACACA_negctrl_site1640],7.42 ± 0.39
14,ATTTTGTAAAAGGTCATACACACATATTCAAAAGAA [CACACA_site2946],7.68 ± 0.62
15,AATATATATTAAATATGTACTTATTTTTTGGTTGCT [XGTACX_site3613],7.86 ± 0.24
16,CGCACCCACAGACACACACACACATATATATATATA [CACACA_site2202],9.275 ± 0.092
17,TACATACAGAAACACACACACACATATATATATATA [CACACA_site2919],9.45 ± 0.35
18,AAAGAATAATTAAATACACACATATTACAGTAAAAA [CACACA_site2450],7.86 ± 0.65
19,TTATATATGACTAACGGTTTTTTTTTTTTTTTTTTT [CACACA_negctrl_site576],9.38 ± 0.33
20,TTATTATATAAAGTTTCACACATTATTTGTTCAAAC [CACACA_site5218],7.53 ± 0.71
21,ATATGAAGTATCGAATTAAGGGCAACAAATAAATTA [CACACA_negctrl_site1116],7.93 ± 0.57
22,AATATAAGCAAATACACACACACATATAAATATGTA [CACACA_site7741],7.66 ± 0.47

row,Sequence,gcPBM binding intensity (ln)
1,TACATATATAAATATGTACACACATATGTATGATCT [CACACA_site9284],7.64 ± 0.4
2,TAATATCAATTTTTATGTACTTATATATATATATAT [XGTACX_site5879],9.27 ± 0.34
3,AGTAGTCTGGAGAAGAGTACACAGTATCTGGTAACA [XGTACX_site2032],7.65 ± 0.48
4,ATTGAGAGAAAAAAATGTACTTGATCAAAATGGATA [XGTACX_site1649],7.75 ± 0.64
5,AAAAATCATATAGGTTGTACGGGTAGTTTATTTTAT [XGTACX_site6936],7.87 ± 0.69
6,GTGTATATATGTTATACACACAAAAATATTTTGTAT [CACACA_site265],7.81 ± 0.52
7,TATATATATTTTATGTGTACTCAATGTTATAACGCA [XGTACX_site8360],8.41 ± 0.42
8,AATAGAGTTGAATGCACACATACAAATTTTTAGTTT [CACACA_site3564],9.56 ± 0.24
9,TGCATAATTAAAAATGGTACACTGTATTTATAATAT [XGTACX_site1575],7.95 ± 0.61
10,TATAAATTAAGATAACGTACATATAATAATATAAAC [XGTACX_site487],7.8 ± 0.59
11,TGTACAGTATATACAACACACATTTGTATAAATATA [CACACA_site1002],7.67 ± 0.35
12,TGTACACCCAGAAATGCACACACATATATATATATA [CACACA_site8716],9.54 ± 0.18
13,ATATATATATCACGCACACACGAATTTTAAATATAT [CACACA_site5691],9.15 ± 0.13
14,TTATTTTTACAATTTTAATAATAATACTAAAACAAA [XGTACX_negctrl_site538],7.39 ± 0.38
15,TCTTTTGCCCAAAAAGGTACACACCACAATTTAAAT [XGTACX_site1482],8.26 ± 0.53
16,TATTGTATGGTAGGATATGATGTTATTTGTTATAAT [CACACA_negctrl_site202],7.71 ± 0.67
17,ATACATATATATATATGTACATATGCACATATATAC [XGTACX_site7209],8.45 ± 0.39
18,TTCTATATAATTCAAACATGCACAGGAAATATTATA [TGCATGCA_site290],9.19 ± 0.49
19,AACAATGTTTTCTTGTGTACACATCATTAAAGAAAA [XGTACX_site4726],8.36 ± 0.071
20,ATAATATATATATATACGCACACTTATGTACGGATT [CACACA_site2120],8.35 ± 0.26
21,AAGAAAAAAGGGGACAAGGCATATCTATATATACAT [TGCATGCA_negctrl_site172],7.83 ± 0.67
22,TATGTAACACATACTTGTACATATATAATTTTTTTA [XGTACX_site6251],7.33 ± 0.28
